The IC50 comes from the fitted curve, where viability falls to half of the control; a fit beyond the top or the lowest dose is shown as a bound at that dose. AUC sums up the same curve from the lowest dose to the 256-fold higher top dose; values near 1 show little effect. Where the top dose is marked as inferred, it comes from the curve model; the source does not state it.
How the values were obtained:
Assay in all cases: Viability of human cancer cell lines after 72 h of drug (GDSC screen)
CH5424802 = compound: CCc1cc2c(cc1N1CCC(N3CCOCC3)CC1)C(C)(C)c1[nH]c3cc(C#N)ccc3c1C2=O [CH5424802]; conditions: top dose 5.12 µM; top dose inferred
Experimental: (§1)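 Human cancer cell lines in 384-well plates, medium with 10% serum, drug for 72 h over a 256-fold dose range (nine 2-fold or five 4-fold steps up to the top dose). Adherent lines were fixed and stained with the nucleic acid dye Syto60, suspension lines read with resazurin; signal relative to control wells, capped at 0 and 100%. One two-parameter sigmoid per drug and line, fitted in a mixed model over all curves with the slope shared within a line.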

CAY10603 = compound: CC(C)(C)OC(=O)Nc1ccc(-c2cc(C(=O)NCCCCCCC(=O)NO)no2)cc1 [CAY10603]; conditions: top dose 20 µM; top dose inferred
Experimental: as §1

ACHP (KIN001-260) = compound: N#Cc1c(C2CCNCC2)cc(-c2c(O)cccc2OCC2CC2)nc1N [ACHP (KIN001-260)]; conditions: top dose 20 µM; top dose inferred
Experimental: as §1

Row | Cell Line | AUC (CH5424802) | IC50 (CH5424802) [µM] | AUC (CAY10603) | IC50 (CAY10603) [µM] | AUC (ACHP (KIN001-260)) | IC50 (ACHP (KIN001-260)) [µM]
1 | ROS-50 (B-cell leukaemia, suspension) | 0.967 | > 5.12 | 0.593 | 2.42 | 0.878 | > 20
2 | RPMI-2650 (head and neck, adherent) | 0.984 | > 5.12 | 0.477 | 1.08 | 0.973 | > 20
3 | RPMI-6666 (Hodgkin lymphoma, suspension) | 0.917 | > 5.12 | 0.261 | 0.221 | 0.749 | 7.68
4 | RPMI-8226 (myeloma, suspension) | 0.936 | > 5.12 | 0.435 | 0.852 | 0.927 | > 20
5 | RT-112 (bladder, adherent) | 0.977 | > 5.12 | 0.564 | 1.9 | 0.984 | > 20
6 | Raji (Burkitt lymphoma, suspension) | 0.988 | > 5.12 | 0.433 | 0.828 | 0.915 | > 20
7 | Ramos-2G6-4C10 (Burkitt lymphoma, suspension) | 0.975 | > 5.12 | 0.313 | 0.408 | 0.914 | > 20
8 | SAS (head and neck, adherent) | 0.973 | > 5.12 | 0.52 | 1.43 | 0.975 | > 20
9 | SAT (head and neck, adherent) | 0.965 | > 5.12 | 0.611 | 2.99 | 0.965 | > 20
10 | SBC-5 (small cell lung carcinoma, adherent) | 0.993 | > 5.12 | 0.474 | 1.08 | 0.993 | > 20
11 | SCC-3 (B-cell lymphoma, suspension) | 0.208 | 0.0618 | 0.511 | 1.33 | 0.991 | > 20
12 | SCC-9 (head and neck, adherent) | 0.923 | > 5.12 | 0.537 | 1.63 | 0.972 | > 20
13 | SCC-25 (head and neck, adherent) | 0.98 | > 5.12 | 0.463 | 0.974 | 0.936 | > 20
14 | SCH (stomach, adherent) | 0.987 | > 5.12 | 0.978 | > 20 | 0.988 | > 20
15 | SF126 (glioma, adherent) | 0.981 | > 5.12 | 0.56 | 1.84 | 0.974 | > 20
16 | SF539 (glioma, adherent) | 0.988 | > 5.12 | 0.528 | 1.48 | 0.957 | > 20
17 | SIG-M5 (acute myeloid leukaemia, suspension) | 0.994 | > 5.12 | 0.153 | 0.164 | 0.667 | 3.21
18 | SISO (cervix, adherent) | 0.983 | > 5.12 | 0.78 | 7.88 | 0.988 | > 20
19 | SK-ES-1 (Ewing sarcoma, semi-adherent) | 0.947 | > 5.12 | 0.28 | 0.284 | 0.951 | > 20

Row | Cell Line | AUC (CH5424802) | IC50 (CH5424802) [µM] | AUC (CAY10603) | IC50 (CAY10603) [µM] | AUC (ACHP (KIN001-260)) | IC50 (ACHP (KIN001-260)) [µM]
20 | SK-HEP-1 (liver, adherent) | 0.988 | > 5.12 | 0.634 | 2.86 | 0.985 | > 20
21 | SK-MEL-24 (melanoma, adherent) | 0.983 | > 5.12 | 0.6 | 2.5 | 0.927 | > 20
22 | SK-OV-3 (ovary, adherent) | 0.946 | > 5.12 | 0.441 | 0.828 | 0.966 | > 20
23 | SK-UT-1 (soft tissue, adherent) | 0.989 | > 5.12 | 0.788 | 7.91 | 0.989 | > 20
24 | SKG-IIIa (cervix, adherent) | 0.981 | > 5.12 | 0.983 | > 20 | 0.978 | > 20
25 | SKN-3 (head and neck, adherent) | 0.982 | > 5.12 | 0.615 | 2.74 | 0.926 | > 20
26 | SN12C (kidney, adherent) | 0.985 | > 5.12 | 0.658 | 3.64 | 0.985 | > 20
27 | SNU-61 (large intestine, adherent) | 0.958 | > 5.12 | 0.445 | 0.846 | 0.972 | > 20
28 | SNU-175 (large intestine, suspension) | 0.937 | > 5.12 | 0.44 | 0.865 | 0.929 | > 20
29 | SNU-182 (liver, adherent) | 0.985 | > 5.12 | 0.514 | 1.36 | 0.976 | > 20
30 | SNU-398 (liver, adherent) | 0.977 | > 5.12 | 0.502 | 1.27 | 0.917 | > 20
31 | SNU-423 (liver, adherent) | 0.967 | > 5.12 | 0.406 | 0.659 | 0.956 | > 20
32 | SNU-449 (liver, adherent) | 0.985 | > 5.12 | 0.83 | 14.2 | 0.939 | > 20
33 | SNU-475 (liver, adherent) | 0.991 | > 5.12 | 0.56 | 1.78 | 0.963 | > 20
34 | SNU-1040 (large intestine, adherent) | 0.967 | > 5.12 | 0.685 | 4.96 | 0.886 | > 20
35 | ST486 (Burkitt lymphoma, suspension) | 0.979 | > 5.12 | 0.329 | 0.443 | 0.68 | 3.73
36 | SU-DHL-1 (anaplastic large cell lymphoma, suspension) | 0.051 |  | 0.656 | 2.97 | 0.997 | > 20
37 | SU-DHL-4 (B-cell lymphoma, suspension) | 0.997 | > 5.12 | 0.296 | 0.401 | 0.942 | 18
38 | SU-DHL-5 (B-cell lymphoma, suspension) | 0.977 | > 5.12 | 0.122 | 0.131 | 0.904 | 14.8

Source: the supplement of paper PMC4967469
